Measured values as given in paper PMC9911399, “Two distinct binding modes provide the RNA-binding protein RbFox with extraordinary sequence specificity”.
Where a chain is given by its changes, count along the chain named. The list shows a part of the results.

T1: RBFOX1 RRM (Homo sapiens, UniProt Q9NWB1 109-208)
T1 sequence: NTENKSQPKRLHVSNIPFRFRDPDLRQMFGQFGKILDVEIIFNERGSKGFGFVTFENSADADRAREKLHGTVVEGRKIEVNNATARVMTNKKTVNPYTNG

B1: GGGGAUA (DNA:RNA)
RNA: GGGAGACCGGAAUUCAGAUUGUCCGGGGAUAUUAAAUCCCGUCGUAGCCACCA
DNA 1: CAATCTGAATTCCGGTCTCCC
DNA 2: TGGTGGCTACGACGGGATT
B2: CGACGAC (DNA:RNA)
RNA: B1 RNA with G25C, G27A, G28C, A29G, U30A, A31C
DNA 1: CAATCTGAATTCCGGTCTCCC
DNA 2: TGGTGGCTACGACGGGATT
B3: AAAGUCC (DNA:RNA)
RNA: B1 RNA with G25A, G26A, G27A, A29U, U30C, A31C
DNA 1: CAATCTGAATTCCGGTCTCCC
DNA 2: TGGTGGCTACGACGGGATT
B4: UGCAAUC (DNA:RNA)
RNA: B1 RNA with G25U, G27C, G28A, A31C
DNA 1: CAATCTGAATTCCGGTCTCCC
DNA 2: TGGTGGCTACGACGGGATT
B5: UGUUUAA (DNA:RNA)
RNA: B1 RNA with G25U, G27U, G28U, A29U, U30A
DNA 1: CAATCTGAATTCCGGTCTCCC
DNA 2: TGGTGGCTACGACGGGATT
B6: AAUUAGG (DNA:RNA)
RNA: B1 RNA with G25A, G26A, G27U, G28U, U30G, A31G
DNA 1: CAATCTGAATTCCGGTCTCCC
DNA 2: TGGTGGCTACGACGGGATT
B7: GCCGCGA (DNA:RNA)
RNA: B1 RNA with G26C, G27C, A29C, U30G
DNA 1: CAATCTGAATTCCGGTCTCCC
DNA 2: TGGTGGCTACGACGGGATT
B8: CAUAAUG (DNA:RNA)
RNA: B1 RNA with G25C, G26A, G27U, G28A, A31G
DNA 1: CAATCTGAATTCCGGTCTCCC
DNA 2: TGGTGGCTACGACGGGATT
B9: AGAUUCA (DNA:RNA)
RNA: B1 RNA with G25A, G27A, G28U, A29U, U30C
DNA 1: CAATCTGAATTCCGGTCTCCC
DNA 2: TGGTGGCTACGACGGGATT

The binders below were run against T1, RBFOX1 RRM (assay: EMSA; HiTS-Eq, 1 nM pool, 10 min; buffer printed only for the single-RNA assays: 10 mM Tris pH 7.5, 150 mM NaCl, 3.4 mM EDTA, 0.001% NP-40, 30 C). Details: tags: His6 N-terminal (pET28a); label: 5' 32P.
Procedure, shortened: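 Relative association constants, normalised to the cognate motif, were derived by comparing read counts of each RNA species with those of the control reaction. The RNA sequenced was the free fraction, separated by 8% native PAGE after a 10 min equilibration in 50 µL of 1 nM 5′-radiolabelled RNA (7 randomized nucleotides) with increasing concentrations of purified wild-type or mutant RbFox RRM.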

| Binder | binding signal |
| --- | --- |
| B1 | 0.0268 KA relative to UGCAUGU |
| B2 | 0.00583 KA relative to UGCAUGU |
| B3 | 0.00674 KA relative to UGCAUGU |
| B4 | 0.00958 KA relative to UGCAUGU |
| B5 | 0.0158 KA relative to UGCAUGU |
| B6 | 0.00759 KA relative to UGCAUGU |
| B7 | 0.0198 KA relative to UGCAUGU |
| B8 | 0.00556 KA relative to UGCAUGU |
| B9 | 0.00597 KA relative to UGCAUGU |
